{"source": "PubChem BioAssay AID624296", "about": "(National Center for Advancing Translational Sciences (NCATS), 2012)", "note": "The campaign covered roughly 350,000 compounds. About 9,900 (2.8%) were called active. Inconclusive results, whose numbers are uncertain, are shown with a selection of clear calls. The call rests on the fitted dose curve; in most records, active means well fitted activation curve with a large enough effect; inconclusive means small, poorly fitted or top-dose-only effect; inactive means no such curve, though single readings can be large or run the other way. No potency is given beside an inconclusive call; the fits are too rough. Potency means the concentration at half of the fitted maximal effect; tags describe the fitted curve by direction and shape."}
{"experiment": "A quantitative high throughput screen for small molecules that induce DNA re-replication in MCF 10a normal breast cells; further: nearly all actives have a fitted effect of over 50% in size; on activity, positive = re-replication: % of control where 0% means no effect.", "settings": "MCF 10A DNA re-replication, Hoechst nuclear intensity, 48 h; activity, positive = re-replication: at 46.1 µM (top of the series)"}
{"smiles": "CCCSc1nc(N2CCCC2)c2c(c1C#N)CC(C)(C)OC2", "Potency": "inconclusive [activator, single point]"}
{"smiles": "CC(C)(C)OC(=O)[C@H](Cc1ccccc1)NC(=O)c1nc[nH]c1C(=O)N1CCN(c2ccccc2)CC1", "activity, positive = re-replication": "inactive: -1.67%"}
{"smiles": "COc1ccc(C(=O)NCCc2c[nH]c3ccccc23)cc1[N+](=O)[O-]", "activity, positive = re-replication": "inactive: 3.79%"}
{"smiles": "Cc1ccc(S(=O)(=O)N2CCC(N3CCC(C)CC3)CC2)cc1", "Potency": "inconclusive [activator, full curve, poor fit]"}
{"smiles": "O=C(Nc1nccs1)c1cccc2ccccc12", "Potency": "inconclusive [activator, single point]"}
{"smiles": "O=C(Nc1cccc(Cl)c1N1CCCC1)c1cc2ccccc2o1", "Potency": "active: 20.6 µM"}
{"smiles": "O=C(Nc1ccccc1)/C(=C\\c1ccc2c(c1)OCO2)NC(=O)c1ccco1", "Potency": "active: 9.2 µM"}
{"smiles": "Cc1nn(-c2ccc([N+](=O)[O-])cc2)c2c1C(c1cccc(Br)c1)N1C(=N2)C(=O)Nc2ccccc21", "note": "(stereo unspecified)", "Potency": "inconclusive [activator, single point]"}
{"smiles": "CCOc1cc(N2CCOCC2)c(OCC)cc1NC(=O)c1cc(S(=O)(=O)N2CCOCC2)ccc1Cl", "Potency": "inconclusive [activator, single point]"}
{"smiles": "Cc1nnc(NC(=O)c2ccc(S(=O)(=O)N(C)c3ccccc3)cc2)s1", "Potency": "inconclusive [activator, single point]"}
{"smiles": "COc1ccccc1N1CCN(c2cc(N3CCCC3)nc(C)n2)CC1", "Potency": "inconclusive [activator, single point]"}
{"smiles": "Cc1ccccc1OCCOC(=O)c1c(-c2ccccc2)noc1C", "Potency": "inconclusive [activator, full curve]"}
{"smiles": "CC(=O)c1c(O)cc(C)n(Nc2nc(C)cc(C)n2)c1=O", "Potency": "inconclusive [activator, partial curve, poor fit]"}
{"smiles": "O=[N+]([O-])c1cc(/C=N/O)ccc1SCc1ccccc1Cl", "Potency": "inconclusive [activator, single point]"}
{"smiles": "CCOc1ccc2c(c1)C(C)=CC(C)(C)N2S(=O)(=O)c1ccc(F)cc1", "Potency": "inconclusive [activator, single point]"}
{"smiles": "CCCc1nc(C)cc(N2CCN(c3ccccc3)CC2)n1", "Potency": "inconclusive [activator, single point]"}
{"smiles": "Fc1ccc2[nH]c3c(Cl)ncnc3c2c1", "Potency": "inconclusive [activator, single point]"}
{"smiles": "Cc1ccc(SCc2[nH]nc3c2C(c2ccco2)C(C#N)=C(N)O3)cc1", "note": "(stereo unspecified)", "Potency": "inconclusive [activator, single point]"}
{"smiles": "COC(=O)c1nn(-c2ccccc2)c(-c2ccccc2)c1C(=O)c1ccccc1", "Potency": "inconclusive [activator, single point]"}
{"smiles": "Cc1ccc(S(=O)(=O)N/N=C2\\C(=O)C3(C)CCC2C3(C)C)cc1", "note": "(stereo unspecified)", "activity, positive = re-replication": "inactive: -7.55%"}
{"smiles": "CCOC(=O)c1cc(NC(=O)COc2ccc([N+](=O)[O-])cc2)cc(C(=O)OCC)c1", "Potency": "inconclusive [activator, full curve, poor fit]"}
{"smiles": "Cc1ccc(S(=O)(=O)N(C)CCCC(=O)Nc2cccc3ccccc23)cc1", "Potency": "inconclusive [activator, single point]"}
{"smiles": "CCC(=O)N(Cc1cc2cc(OC)ccc2[nH]c1=O)c1ccccc1C", "activity, positive = re-replication": "inactive: 11.2%"}
{"smiles": "Cc1cc(C)c(-c2csc(NC(=O)/C=C/c3cccs3)n2)c(C)c1", "Potency": "inconclusive [activator, single point]"}
{"smiles": "O=C(Nc1ccc(NC(=O)c2ccc3c(c2)OCCO3)cc1)c1ccccc1", "activity, positive = re-replication": "inactive: 3.48%"}
{"smiles": "Cc1ccc(S(=O)(=O)c2cc3c(=O)n4ccccc4nc3n(C)c2=N)cc1", "Potency": "inconclusive [activator, single point]"}
{"smiles": "Cc1cccc(Cn2ncc(Cl)c(Cl)c2=O)c1", "Potency": "active: 13 µM"}
{"smiles": "CN1C2=C(C(=O)CC(C)(C)C2)C(c2cccs2)C2=C1CC(C)(C)CC2=O", "Potency": "inconclusive [activator, single point]"}
{"smiles": "C=Cn1cc[n+](CC(=O)c2ccc(Cl)cc2)c1", "Potency": "inconclusive [activator, single point]"}
{"smiles": "CC(=O)Oc1ccc2c(c1)CCC1C2CCC2(C)C(OC(C)=O)CCC12", "note": "(stereo unspecified)", "Potency": "inconclusive [activator, single point]"}
{"smiles": "CCN(C(=O)CSC1=Nc2ccccc2C2CC=NN12)C1CCS(=O)(=O)C1", "note": "(stereo unspecified)", "Potency": "inconclusive [activator, full curve, poor fit]"}
{"smiles": "Cc1ccc(N2NC(=O)/C(=C\\c3cc4c(cc3[N+](=O)[O-])OCO4)C2=O)cc1C", "Potency": "active: 18.4 µM"}
{"smiles": "Cc1cccc(S(=O)(=O)Nc2nc3ccccc3nc2Nc2ccc3c(c2)OCO3)c1", "Potency": "inconclusive [activator, partial curve, poor fit]"}
{"smiles": "COc1cccc(S(=O)(=O)Nc2ccc(C(=O)N3CCN(C(=O)c4ccco4)CC3)cc2)c1", "activity, positive = re-replication": "inactive: -16%"}
{"smiles": "O=C(Nc1ccc(N2CCCC2)cc1)c1cc(Cl)ccc1Cl", "Potency": "inconclusive [activator, single point]"}
{"smiles": "COc1cc(/C=N/NC(=O)c2ccncc2)ccc1OCC(=O)Nc1ccc(C)c(C)c1", "Potency": "inconclusive [activator, single point]"}
{"smiles": "O=S(=O)(Nc1ccccc1Cl)c1cc(NC(=S)NCCN2CCOCC2)ccc1Cl", "Potency": "inconclusive [activator, partial curve, poor fit]"}
{"smiles": "O=C(COc1ccccc1-c1ccccc1)N/N=C/c1cccnc1", "Potency": "inconclusive [activator, single point]"}
{"smiles": "c1ccc(OCCSc2nc3ccccc3o2)cc1", "Potency": "inconclusive [activator, partial curve, poor fit]"}
{"smiles": "COc1ccc(CCN(C)CC(O)COC(c2ccc(F)cc2)c2ccc(F)cc2)cc1OC", "note": "(stereo unspecified)", "Potency": "inconclusive [activator, single point]"}
{"smiles": "O=C1c2ccccc2NC(c2cccs2)N1NS(=O)(=O)c1ccccc1", "note": "(stereo unspecified)", "Potency": "inconclusive [activator, single point]"}
{"smiles": "CC(C)c1ccc(NC(=O)N2CCN(S(=O)(=O)c3ccccc3)CC2)cc1", "Potency": "inconclusive [activator, partial curve, poor fit]"}
{"smiles": "Cc1ccc(Nc2c([N+](=O)[O-])c(=O)oc3ccccc23)cc1", "Potency": "inconclusive [activator, single point]"}
{"smiles": "Cc1ccc(OCC(=O)c2cc(C)n(C3CC3)c2C)c([N+](=O)[O-])n1", "Potency": "inconclusive [activator, single point]"}
{"smiles": "C#CCn1cc(/C=N/Nc2nc3ccccc3[nH]2)c2ccccc21", "Potency": "inconclusive [activator, partial curve, poor fit]"}
{"smiles": "CN1/C(=C\\C=C2/SC(=S)NC2=O)C(C)(C)c2ccccc21", "Potency": "inconclusive [activator, single point]"}
{"smiles": "C=C(C)CN(CC)C(=O)CSc1ccc(S(=O)(=O)N2CCN(C)CC2)cn1", "Potency": "inconclusive [activator, partial curve, poor fit]"}
{"smiles": "CCn1cc(C(=O)O)c(=O)c2cc(F)c(N3CCNCC3)nc21", "Potency": "inactive"}
{"smiles": "CCN1CCN(c2ccc(NC(=O)c3ccc(F)cc3)cc2Cl)CC1", "Potency": "inconclusive [activator, single point]"}
{"smiles": "C/C(=N\\NC(N)=O)c1ccc(Cl)cc1", "activity, positive = re-replication": "inactive: -9.67%"}
{"smiles": "COCCCNc1nnc(Cc2ccc(Cl)cc2)c(=O)[nH]1", "Potency": "active: 0.517 µM"}
{"smiles": "CC(=O)Nc1ccc(Nc2nc3ccccc3nc2NS(=O)(=O)c2ccc(Cl)c([N+](=O)[O-])c2)cc1", "Potency": "inconclusive [activator, single point]"}
{"smiles": "CCOc1ccc(CNS(=O)(=O)c2cccs2)cc1OCC", "activity, positive = re-replication": "inactive: -0.0134%"}
{"smiles": "Cc1ccsc1/C=N/Nc1ccc(F)cc1F", "Potency": "inconclusive [activator, single point]"}
{"smiles": "N#Cc1cc(C#N)c(SCC(=O)N2CC(=O)Nc3ccccc32)nc1N", "activity, positive = re-replication": "inactive: 5.74%"}
{"smiles": "O=C(CN(Cc1ccccc1)C1=NCCS1)c1ccccc1", "activity, positive = re-replication": "inactive: 0.581%"}
{"smiles": "COc1cc2c(c(OC)c1OC)-c1ccc(OC)c(=O)cc1[C@@H](N(C)CC#CCO)CC2", "Potency": "inconclusive [activator, full curve, poor fit]"}
{"smiles": "CCOC(=O)C1=C(COC(=O)/C=C/c2cc(Br)ccc2F)NC(=O)NC1C", "note": "(stereo unspecified)", "activity, positive = re-replication": "inactive: 3.55%"}
{"smiles": "CC(C)(C)c1ccc(C(=O)NNC(=O)Cc2cccc3ccccc23)cc1", "Potency": "inconclusive [activator, partial curve, poor fit]"}
{"smiles": "COc1cc2c(cc1OC)CN(C(=O)c1ccc([N+](=O)[O-])o1)CC2", "Potency": "inconclusive [activator, single point]"}
{"smiles": "CCOc1ccc(OCCC(=O)OCC(=O)N2CCN(S(=O)(=O)c3ccc(C)cc3)CC2)cc1", "Potency": "inconclusive [activator, single point]"}
{"smiles": "Cc1ccc(C)c(S(=O)(=O)N2CCCOC2CNC(=O)C(=O)NCCc2ccco2)c1", "note": "(stereo unspecified)", "Potency": "inconclusive [activator, single point]"}
{"smiles": "CN(C)/N=C/C=C1\\CCC/C(=C\\c2ccc(F)c(F)c2)C1=O", "Potency": "active: 14.1 µM"}
{"smiles": "CCN(CC)C(=O)c1sc2nc(-c3cccs3)cc(-c3cccs3)c2c1N", "Potency": "inconclusive [activator, single point]"}
{"smiles": "CCCC(=O)C1=C(O)C(C(=O)OC)C(C)(C)CC1=NC", "note": "(stereo unspecified)", "Potency": "inconclusive [activator, full curve, poor fit]"}
{"smiles": "CN1C/C(=C/c2ccsc2)C(=O)/C(=C/c2ccsc2)C1", "Potency": "active: 18.4 µM"}
